This is one part of the list. Values were computed here from the reads of four pooled replicates and scatter widely.
Each sequence was assayed against T1, Pho4 (S. cerevisiae) (UniProt P07270) (assay: relative binding free energy (BET-seq); higher = weaker binding). Conditions: reference: library average.
T1 sequence: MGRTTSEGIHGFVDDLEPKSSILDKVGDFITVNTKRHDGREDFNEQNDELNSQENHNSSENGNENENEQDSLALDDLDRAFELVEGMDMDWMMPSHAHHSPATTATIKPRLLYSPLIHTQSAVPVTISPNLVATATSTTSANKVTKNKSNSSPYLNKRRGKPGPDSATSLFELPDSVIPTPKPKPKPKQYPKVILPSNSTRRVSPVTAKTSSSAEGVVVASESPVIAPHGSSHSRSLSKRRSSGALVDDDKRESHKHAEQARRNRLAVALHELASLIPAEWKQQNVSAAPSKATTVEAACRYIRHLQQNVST

Sequence | relative binding free energy
GAGGACACGTGTTCGT | 0.15 kcal/mol
TTCTGCACGTGGGAGG | -0.08 kcal/mol
GGTCTCACGTGGTAGT | 0.25 kcal/mol
TTTAACACGTGCTGTT | -0.04 kcal/mol
GTATACACGTGGTGTC | -0.03 kcal/mol
GAACTCACGTGGGGAG | 0.19 kcal/mol
GTTGCCACGTGGCTTT | -0.11 kcal/mol
TGGATCACGTGCGATG | 0.18 kcal/mol
TTTATCACGTGGCTCG | 0.08 kcal/mol
TACAGCACGTGGGGGG | -0.25 kcal/mol
TGTTGCACGTGCTTCT | -0.05 kcal/mol
TGTTACACGTGTTTCT | 0.03 kcal/mol
ATCGACACGTGGGTTT | -0.02 kcal/mol
CTTAGCACGTGGTCGG | -0.14 kcal/mol
GTGGACACGTGGTCGA | -0.09 kcal/mol
TCTAACACGTGTGGTA | 0.03 kcal/mol
CTTGGCACGTGAGGTC | 0.12 kcal/mol
TTCGCCACGTGGTATT | -0.09 kcal/mol
TTGAGCACGTGTTCTA | -0.02 kcal/mol
TTGGTCACGTGAGCCG | 0.15 kcal/mol
AATTTCACGTGCTATG | 0.11 kcal/mol
TAGGTCACGTGATAAG | 0.22 kcal/mol
CGTTCCACGTGTGTTT | 0.1 kcal/mol

Sequence | relative binding free energy
AATTGCACGTGTAAAG | 0.05 kcal/mol
AATGGCACGTGTAGAT | 0.05 kcal/mol
ACGGTCACGTGGAAAG | 0.14 kcal/mol
AGGGGCACGTGGGTCC | -0.33 kcal/mol
TTATACACGTGGTCTT | -0.15 kcal/mol
TATAGCACGTGGGGGT | -0.19 kcal/mol
CTGGTCACGTGGAGTT | 0.25 kcal/mol
TTAGTCACGTGGCTCG | 0.02 kcal/mol
GTGCTCACGTGGTGTC | 0.07 kcal/mol
AGTTGCACGTGGAGGG | -0.06 kcal/mol
TGGTGCACGTGCTGTG | -0.04 kcal/mol
ATTGACACGTGGTCAT | -0.05 kcal/mol
TTATTCACGTGGTACT | 0.19 kcal/mol
CGCTGCACGTGGGGGA | -0.11 kcal/mol
GTTTACACGTGGTAGG | 0.15 kcal/mol
TTTGGCACGTGAGGCA | 0.17 kcal/mol
TCTAACACGTGGAGGT | 0 kcal/mol
TTTAGCACGTGGTATT | -0.13 kcal/mol
TCTGGCACGTGCGGGA | -0.13 kcal/mol
TGGGTCACGTGGTGCA | 0.08 kcal/mol
CGGGGCACGTGAGAGA | 0.19 kcal/mol
GGATTCACGTGATTTA | 0.45 kcal/mol
TTGATCACGTGTAAAG | 0.27 kcal/mol

Sequence | relative binding free energy
GATGGCACGTGGCGAG | -0.16 kcal/mol
TTGCTCACGTGGACGT | 0.2 kcal/mol
CGTGGCACGTGGTTGA | -0.2 kcal/mol
TATTTCACGTGGCAGT | 0.09 kcal/mol
TTTTGCACGTGCGCGG | -0.12 kcal/mol
ATGGGCACGTGTGGAT | 0.01 kcal/mol
TCGAGCACGTGCGGTG | -0.14 kcal/mol
AGTAACACGTGGGGTA | -0.2 kcal/mol
GTGAACACGTGGATGT | -0.01 kcal/mol
TGAGTCACGTGTGGCG | 0.11 kcal/mol
GAGTACACGTGTTGTG | 0.1 kcal/mol
CTAGACACGTGTGGGG | 0.1 kcal/mol
CGTGGCACGTGCTGTG | -0.16 kcal/mol
CGGGACACGTGGTAGG | -0.02 kcal/mol
GTTCTCACGTGGGTAA | -0.01 kcal/mol
AATCTCACGTGATGTG | 0.26 kcal/mol
TGTATCACGTGACTTG | 0.26 kcal/mol
GAGCTCACGTGTTGGT | 0.31 kcal/mol
GATTACACGTGAGATG | 0.45 kcal/mol
TTACGCACGTGAGTGC | 0.17 kcal/mol
GAAGACACGTGTGTTT | 0.02 kcal/mol
GAGATCACGTGGCGTG | 0.22 kcal/mol
GGGGTCACGTGGATAT | 0.2 kcal/mol

Sequence | relative binding free energy
ATGTCCACGTGAATGT | 0.15 kcal/mol
CGGTTCACGTGGGGAG | 0.2 kcal/mol
TTTTTCACGTGTGATG | 0.28 kcal/mol
TTGGCCACGTGGGGAG | -0.1 kcal/mol
GGGTACACGTGGAGAT | 0.27 kcal/mol
TTGCGCACGTGGTAAG | -0.13 kcal/mol
TAGATCACGTGGCTGT | 0.03 kcal/mol
CATGGCACGTGGGATT | -0.09 kcal/mol
TTGGACACGTGGCGGG | -0.07 kcal/mol
GGCTTCACGTGGAGTT | 0.32 kcal/mol
AGGCGCACGTGGTATT | -0.28 kcal/mol
GCAGTCACGTGTTTTG | 0.19 kcal/mol
GCTCGCACGTGGGGGT | -0.2 kcal/mol
AAAGTCACGTGGGTGC | -0.01 kcal/mol
TCGTGCACGTGTGTCA | 0.07 kcal/mol
CGAATCACGTGAGGGG | 0.35 kcal/mol
AAAAGCACGTGCTAGT | 0.11 kcal/mol
TGTGTCACGTGGGAAT | 0.09 kcal/mol
TGTTTCACGTGAGGCC | 0.4 kcal/mol
CAATTCACGTGATTGT | 0.4 kcal/mol
GGCTGCACGTGTGGCT | 0.03 kcal/mol
TGGTGCACGTGCGTAG | -0.13 kcal/mol
TTGCACACGTGGATTG | 0.09 kcal/mol

Sequence | relative binding free energy
CTAAGCACGTGTTGCT | 0.14 kcal/mol
ACTGTCACGTGGGGCT | -0.15 kcal/mol
TTGTCCACGTGTATGT | 0.07 kcal/mol
TCTGGCACGTGTGGCA | 0.06 kcal/mol
TTGGGCACGTGATCCG | 0.05 kcal/mol
CGTAACACGTGATGTG | 0.12 kcal/mol
TAGTTCACGTGGCATG | 0.21 kcal/mol
TAGATCACGTGATTAT | 0.28 kcal/mol
TTGTTCACGTGCATAT | 0.24 kcal/mol
TGTCTCACGTGTTCTT | 0.18 kcal/mol
GTTCTCACGTGGGGGT | 0.18 kcal/mol
AAGTTCACGTGTGCAT | 0.24 kcal/mol
ATCGGCACGTGCGGGG | -0.16 kcal/mol
TACTGCACGTGTAAGG | 0.14 kcal/mol
GGTTCCACGTGCGGGT | 0.18 kcal/mol
AGGTTCACGTGGATTT | 0.27 kcal/mol
TTTTACACGTGCTGTC | 0.06 kcal/mol
AAAGTCACGTGTAGGT | 0.2 kcal/mol
TTAAGCACGTGGAAGT | 0.01 kcal/mol
AGGGTCACGTGTGTCC | 0.24 kcal/mol
GTGTACACGTGTAGCT | 0.07 kcal/mol
CTGGTCACGTGAGGTT | 0.34 kcal/mol
GGGGACACGTGCATGT | -0.01 kcal/mol
